Experimental data taken from article PMC4336329 (PLoS ONE, 2015).
Among all 310,000 compounds or so, about 2,200 (0.71%) showed an effect of 50% or more. The effect is printed as a negative number. This is one part of the list.

biological target: human ether-à-go-go-related gene (hERG) potassium channel (human, UniProt Q12809); assay: primary screen, population patch clamp on CHO cells stably expressing hERG
Sequence (Q12809 whole entry, looked up): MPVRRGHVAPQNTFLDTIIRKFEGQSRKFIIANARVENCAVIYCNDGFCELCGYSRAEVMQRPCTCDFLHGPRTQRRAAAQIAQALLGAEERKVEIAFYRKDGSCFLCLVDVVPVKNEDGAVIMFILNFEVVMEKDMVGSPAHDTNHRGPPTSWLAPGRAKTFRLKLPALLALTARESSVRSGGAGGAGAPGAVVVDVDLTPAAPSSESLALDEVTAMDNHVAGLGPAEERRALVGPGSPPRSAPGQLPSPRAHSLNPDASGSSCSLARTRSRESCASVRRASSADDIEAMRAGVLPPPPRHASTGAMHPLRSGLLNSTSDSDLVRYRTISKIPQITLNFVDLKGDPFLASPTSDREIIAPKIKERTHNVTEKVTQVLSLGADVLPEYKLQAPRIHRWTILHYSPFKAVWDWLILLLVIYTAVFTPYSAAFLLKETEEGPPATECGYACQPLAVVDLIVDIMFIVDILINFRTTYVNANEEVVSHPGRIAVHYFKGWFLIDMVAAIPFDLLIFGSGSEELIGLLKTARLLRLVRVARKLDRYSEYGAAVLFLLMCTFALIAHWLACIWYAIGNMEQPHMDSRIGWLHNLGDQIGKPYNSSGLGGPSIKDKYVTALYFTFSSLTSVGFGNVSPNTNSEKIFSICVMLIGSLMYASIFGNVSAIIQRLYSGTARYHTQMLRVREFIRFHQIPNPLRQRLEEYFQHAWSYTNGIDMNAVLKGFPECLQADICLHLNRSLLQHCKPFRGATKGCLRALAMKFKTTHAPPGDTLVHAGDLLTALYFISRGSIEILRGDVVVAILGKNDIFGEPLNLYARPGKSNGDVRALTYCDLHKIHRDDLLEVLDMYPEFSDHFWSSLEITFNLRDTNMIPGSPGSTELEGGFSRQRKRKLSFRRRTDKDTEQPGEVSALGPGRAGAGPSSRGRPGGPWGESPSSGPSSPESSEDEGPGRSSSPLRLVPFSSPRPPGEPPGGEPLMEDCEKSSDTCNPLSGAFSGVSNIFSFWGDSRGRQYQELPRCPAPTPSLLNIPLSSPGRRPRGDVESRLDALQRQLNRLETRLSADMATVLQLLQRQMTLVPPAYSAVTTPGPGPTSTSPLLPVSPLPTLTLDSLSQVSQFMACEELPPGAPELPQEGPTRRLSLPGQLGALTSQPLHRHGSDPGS

Row | SMILES | hERG current change (%, negative = inhibition) at 1uM [%]
1 | COC(=O)/C=C1/SC(=NC(=O)c2ccc(OC)cc2)NC1=O | 19.8
2 | CCCN(C(=O)c1ccc(N2CCCC2=O)cc1)C1CCS(=O)(=O)C1 (stereo not shown) | 9.89
3 | Nc1ccc(-c2nc3nc(N)nc(N)c3nc2-c2ccc(N)cc2)cc1 | 12.4
4 | O=C(NCC(=O)N1CCN(c2ccccc2)CC1)c1ccc(Cl)cc1 | 17.8
5 | C=C(Cl)COc1ccc2c(CC)cc(=O)oc2c1 | -3.72
6 | CC(=O)c1ccc(OCC(C)C)c(CN2CCCCC2)c1.Cl | -2.06
7 | O=C(O)COc1ccc(S(=O)(=O)NCCc2ccccc2)cc1 | 5.92
8 | COc1ccc(CNC(=O)C2CCNCC2)cc1 | 12.2
9 | COc1cccc(CN2CC(C(=O)NCCn3ccc(C)n3)CCC2=O)c1 (stereo not shown) | 12.3
10 | O=C(NCCC(=O)N1CCN(Cc2c(F)cccc2Cl)CC1)c1ccc(Cl)cc1 | -4.72
11 | COc1ccc(/C=N/NC(N)=S)cc1OC(=O)c1cccc2ccccc12 | 5.11
12 | CC(=O)N1CCN(S(=O)(=O)c2cccc(C(=O)OCC(=O)N(CCC#N)c3ccc(F)cc3)c2)CC1 | 18.2
13 | CCN(CC)CCCN1C(=O)CSC1c1ccc([N+](=O)[O-])cc1.Cl (stereo not shown) | -74.4
14 | CCS(=O)(=O)N1CCC(C(=O)NCC2CCCO2)CC1 (stereo not shown) | 5.05
15 | O=c1[nH]c(CN2CCN(S(=O)(=O)c3ccccc3C(F)(F)F)CC2)nc2sc3c(c12)CCCC3 | 17.4
16 | Cc1csc2nc(CNC(=O)c3cccc(C(F)(F)F)c3)cn12 | 3.48
17 | CC(C)NS(=O)(=O)c1ccc(OCC(=O)N2CCCC2)c(Cl)c1 | 6.16
18 | CN(C)CCCNC(=O)c1ccccc1Oc1ccccc1 | -2.29
19 | O=C(NC(=S)Nc1ccc2[nH]c(=O)[nH]c2c1)c1cncc(Br)c1 | 12.2
20 | C=CCN(c1ccccc1)S(=O)(=O)c1cccc(C(=O)Nc2nc3ccccc3[nH]2)c1 | 6.46
21 | Cc1cccc(C)c1N1CC(=O)N(c2c(C)cccc2C)CC1=O | 6.43
22 | Cc1nc2sc3c(NCc4ccco4)ncnc3c2c2c1COC(C)(C)C2 | 12.4

Row | SMILES | hERG current change (%, negative = inhibition) at 1uM [%]
23 | Cc1ccccc1NC(=O)CN(C)S(=O)(=O)c1cccc2cccnc12 | 0.118
24 | COc1ccc(NC(=O)c2ccc(CN(c3cc(Cl)ccc3C)S(=O)(=O)c3ccccc3)cc2)cc1OC | 2.14
25 | CC(C)CC(NC(N)=O)C(=O)Nc1cccc([N+](=O)[O-])c1 (stereo not shown) | 8.11
26 | Cc1ccc(S(=O)(=O)CCC(=O)N2CCN(c3ccccc3F)CC2)cc1 | 8.62
27 | O=C(Nc1ccc(Br)cc1Cl)c1ccc2c(=O)n3c(nc2c1)CCC3 | 3.46
28 | CCCc1cc2c(=O)c(-c3ccc4c(c3)OCCO4)coc2cc1OS(C)(=O)=O | 15.3
29 | COc1ccc(-c2cc(=Nc3ccc(C)cc3)c3ccccc3o2)cc1 | 8.29
30 | Cc1cc(C)n(-c2nnc(C)n2/N=C/c2ccccc2OCc2ccccc2Cl)n1 | -2.75
31 | O=C(O)c1cc(N/N=C/c2cccs2)ccc1Cl | 18.1
32 | O=C(CSc1n[nH]c(-c2ccccn2)n1)Nc1cccc(Cl)c1 | 10.6
33 | COC(=O)C(C)NC(=O)C12CC3CC(C1)CC(c1ccc(C)cc1)(C3)C2 (stereo not shown) | 9.06
34 | CCOC(=O)c1cccc(NS(=O)(=O)Cc2ccccc2)c1 | 7.43
35 | CCOC(=O)CCN1C(=O)c2ccccc2Sc2ncccc21 | 12.1
36 | Nc1c(C(=O)Nc2ccccc2)nnn1-c1ccc2c(c1)OCCO2 | 14.1
37 | Cc1ccc(/C=N/NC(=O)Cn2cnc3ccccc32)o1 | 8.67
38 | CN(Cc1nc(Cc2ccccc2F)no1)Cc1cccc2ncccc12 | -9.06
39 | CCN(CC)C(=O)CSc1ccccc1N | 6.53
40 | CCN1C[C@]2(COC)CC[C@H](OC)[C@@]34C1[C@]1(OCO[C@@]15C[C@H](OC)[C@H]1C[C@@H]3[C@@H]5[C@H]1OC)[C@@H](O)[C@H]24 | 14.5
41 | O=C(c1ccc2c(=O)n3c(nc2c1)CCCCC3)N1CCc2ccccc21 | 0.473
42 | Cc1cccc(N2CCN(S(=O)(=O)c3cccs3)CC2)c1C | -2.42
43 | C/C(CC(C)C)=N\NS(=O)(=O)c1ccc(C)c([N+](=O)[O-])c1 | 6.48
